# Data: the supplement of paper PMC8728848
# The list shows a part of the results.
# B1: SJA (Sophora japonica) (protein)
# chain: FLGLFNSGGYSSSYQIVAVEFDTYINEWDPKTRHIGIDINSINSTKTVTWGWENGEVAIVLISYKAATETLTVSLTYPSSQTSYILSAAVDLKSILPEWVRIGF
# Tests used:
# Assay in all cases: glycan array binding signal (z-score within array); higher = stronger binding
# Conditions in all cases: glycan notation: IUPAC condensed, linker removed
# [1] = biological target: GlcNAc(b1-2)[GlcNAc(b1-4)]Man(a1-3)[GlcNAc(b1-4)][GlcNAc(b1-2)Man(a1-6)]Man(b1-4)GlcNAc(b1-4)GlcNAc
# Procedure, shortened: (§1)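 The binding signal is a Z-score computed within each array. Data were drawn from 3228 arrays in the Consortium for Functional Glycomics database, restricted to those with a known protein sequence. Scores were averaged over arrays of the same protein sequence at different concentrations or buffers, and over linkers, and negative values can be taken as non-binding.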
# [2] = biological target: GlcNAc(b1-2)[GlcNAc(b1-4)]Man(a1-3)[GlcNAc(b1-4)][GlcNAc(b1-2)[GlcNAc(b1-6)]Man(a1-6)]Man(b1-4)GlcNAc(b1-4)GlcNAc
# Procedure, shortened: as §1
# [3] = biological target: GlcNAc(b1-2)[GlcNAc(b1-4)]Man(a1-3)[GlcNAc(b1-4)][GlcNAc(b1-2)[GlcNAc(b1-6)]Man(a1-6)]Man(b1-4)GlcNAc(b1-4)[Fuc(a1-6)]GlcNAc
# Procedure, shortened: as §1
# [4] = biological target: GlcNAc(b1-2)[GlcNAc(b1-6)]Man(a1-6)[GlcNAc(b1-2)Man(a1-3)]Man(b1-4)GlcNAc(b1-4)GlcNAc
# Procedure, shortened: as §1
# [5] = biological target: GlcNAc(b1-2)[GlcNAc(b1-6)]Man(a1-6)[GlcNAc(b1-2)Man(a1-3)]Man(b1-4)GlcNAc(b1-4)[Fuc(a1-6)]GlcNAc
# Procedure, shortened: as §1
# [6] = biological target: GlcNAc(b1-2)[GlcNAc(b1-6)]Man(a1-6)[GlcNAc(b1-4)][GlcNAc(b1-2)Man(a1-3)]Man(b1-4)GlcNAc(b1-4)GlcNAc
# Procedure, shortened: as §1
# GlcNAc(b1-3)Fuc = biological target: GlcNAc(b1-3)Fuc
# Procedure, shortened: as §1
# GlcNAc(b1-3)Gal = biological target: GlcNAc(b1-3)Gal
# Procedure, shortened: as §1
# [7] = biological target: GlcNAc(b1-3)Gal(b1-3)GalNAc
# Procedure, shortened: as §1
# GlcNAc(b1-3)Gal(b1-4)Glc = biological target: GlcNAc(b1-3)Gal(b1-4)Glc
# Procedure, shortened: as §1
# [8] = biological target: GlcNAc(b1-3)Gal(b1-4)GlcNAc
# Procedure, shortened: as §1
# [9] = biological target: GlcNAc(b1-3)Gal(b1-4)GlcNAc(b1-2)Man(a1-3)[GlcNAc(b1-3)Gal(b1-4)GlcNAc(b1-2)Man(a1-6)]Man(b1-4)GlcNAc(b1-4)GlcNAc
# Procedure, shortened: as §1
# [10] = biological target: GlcNAc(b1-3)Gal(b1-4)GlcNAc(b1-2)Man(a1-3)[GlcNAc(b1-3)Gal(b1-4)GlcNAc(b1-2)Man(a1-6)]Man(b1-4)GlcNAc(b1-4)[Fuc(a1-6)]GlcNAc
# Procedure, shortened: as §1
# [11] = biological target: GlcNAc(b1-3)Gal(b1-4)GlcNAc(b1-2)[GlcNAc(b1-3)Gal(b1-4)GlcNAc(b1-6)]Man(a1-6)[GlcNAc(b1-3)Gal(b1-4)GlcNAc(b1-2)Man(a1-3)]Man(b1-4)GlcNAc(b1-4)GlcNAc
# Procedure, shortened: as §1
# [12] = biological target: GlcNAc(b1-3)Gal(b1-4)GlcNAc(b1-3)Gal(b1-4)GlcNAc
# Procedure, shortened: as §1
# [13] = biological target: GlcNAc(b1-3)Gal(b1-4)GlcNAc(b1-3)Gal(b1-4)GlcNAc(b1-2)Man(a1-3)[GlcNAc(b1-3)Gal(b1-4)GlcNAc(b1-3)Gal(b1-4)GlcNAc(b1-2)Man(a1-6)]Man(b1-4)GlcNAc(b1-4)GlcNAc
# Procedure, shortened: as §1
# [14] = biological target: GlcNAc(b1-3)Gal(b1-4)GlcNAc(b1-3)Gal(b1-4)GlcNAc(b1-2)Man(a1-3)[GlcNAc(b1-3)Gal(b1-4)GlcNAc(b1-3)Gal(b1-4)GlcNAc(b1-2)Man(a1-6)]Man(b1-4)GlcNAc(b1-4)[Fuc(a1-6)]GlcNAc
# Procedure, shortened: as §1
# [15] = biological target: GlcNAc(b1-3)Gal(b1-4)GlcNAc(b1-3)Gal(b1-4)GlcNAc(b1-2)[GlcNAc(b1-3)Gal(b1-4)GlcNAc(b1-3)Gal(b1-4)GlcNAc(b1-6)]Man(a1-6)[GlcNAc(b1-3)Gal(b1-4)GlcNAc(b1-3)Gal(b1-4)GlcNAc(b1-2)Man(a1-3)]Man(b1-4)GlcNAc(b1-4)[Fuc(a1-6)]GlcNAc
# Procedure, shortened: as §1
# [16] = biological target: GlcNAc(b1-3)Gal(b1-4)GlcNAc(b1-3)Gal(b1-4)GlcNAc(b1-3)Gal(b1-4)GlcNAc(b1-2)Man(a1-3)[GlcNAc(b1-3)Gal(b1-4)GlcNAc(b1-3)Gal(b1-4)GlcNAc(b1-3)Gal(b1-4)GlcNAc(b1-2)Man(a1-6)]Man(b1-4)GlcNAc(b1-4)GlcNAc
# Procedure, shortened: as §1
# [17] = biological target: GlcNAc(b1-3)Gal(b1-4)GlcNAc(b1-3)Gal(b1-4)GlcNAc(b1-3)Gal(b1-4)GlcNAc(b1-2)Man(a1-3)[GlcNAc(b1-3)Gal(b1-4)GlcNAc(b1-3)Gal(b1-4)GlcNAc(b1-3)Gal(b1-4)GlcNAc(b1-2)Man(a1-6)]Man(b1-4)GlcNAc(b1-4)[Fuc(a1-6)]GlcNAc
# Procedure, shortened: as §1
# [18] = biological target: GlcNAc(b1-3)Gal(b1-4)GlcNAc(b1-3)Gal(b1-4)GlcNAc(b1-3)Gal(b1-4)GlcNAc(b1-2)[GlcNAc(b1-3)Gal(b1-4)GlcNAc(b1-3)Gal(b1-4)GlcNAc(b1-3)Gal(b1-4)GlcNAc(b1-6)]Man(a1-6)[GlcNAc(b1-3)Gal(b1-4)GlcNAc(b1-3)Gal(b1-4)GlcNAc(b1-3)Gal(b1-4)GlcNAc(b1-2)Man(a1-3)]Man(b1-4)GlcNAc(b1-4)[Fuc(a1-6)]GlcNAc
# Procedure, shortened: as §1
# [19] = biological target: GlcNAc(b1-3)Gal(b1-4)GlcNAc(b1-3)Gal(b1-4)GlcNAc(b1-3)Gal(b1-4)GlcNAc(b1-3)Gal(b1-4)GlcNAc(b1-2)Man(a1-3)[GlcNAc(b1-3)Gal(b1-4)GlcNAc(b1-3)Gal(b1-4)GlcNAc(b1-3)Gal(b1-4)GlcNAc(b1-3)Gal(b1-4)GlcNAc(b1-2)Man(a1-6)]Man(b1-4)GlcNAc(b1-4)GlcNAc
# Procedure, shortened: as §1
# [20] = biological target: GlcNAc(b1-3)Gal(b1-4)GlcNAc(b1-3)Gal(b1-4)GlcNAc(b1-3)Gal(b1-4)GlcNAc(b1-3)Gal(b1-4)GlcNAc(b1-2)Man(a1-3)[GlcNAc(b1-3)Gal(b1-4)GlcNAc(b1-3)Gal(b1-4)GlcNAc(b1-3)Gal(b1-4)GlcNAc(b1-3)Gal(b1-4)GlcNAc(b1-2)Man(a1-6)]Man(b1-4)GlcNAc(b1-4)[Fuc(a1-6)]GlcNAc
# Procedure, shortened: as §1
# [21] = biological target: GlcNAc(b1-3)Gal(b1-4)GlcNAc(b1-3)Gal(b1-4)GlcNAc(b1-3)Gal(b1-4)GlcNAc(b1-3)Gal(b1-4)GlcNAc(b1-2)[GlcNAc(b1-3)Gal(b1-4)GlcNAc(b1-3)Gal(b1-4)GlcNAc(b1-3)Gal(b1-4)GlcNAc(b1-3)Gal(b1-4)GlcNAc(b1-6)]Man(a1-6)[GlcNAc(b1-3)Gal(b1-4)GlcNAc(b1-3)Gal(b1-4)GlcNAc(b1-3)Gal(b1-4)GlcNAc(b1-3)Gal(b1-4)GlcNAc(b1-2)Man(a1-3)]Man(b1-4)GlcNAc(b1-4)[Fuc(a1-6)]GlcNAc
# Procedure, shortened: as §1
# [22] = biological target: GlcNAc(b1-3)Gal(b1-4)GlcNAc(b1-3)Gal(b1-4)GlcNAc(b1-3)GalNAc
# Procedure, shortened: as §1
# [23] = biological target: GlcNAc(b1-3)Gal(b1-4)GlcNAc(b1-3)GalNAc
# Procedure, shortened: as §1
# [24] = biological target: GlcNAc(b1-3)Gal(b1-4)GlcNAc(b1-3)[GlcNAc(b1-3)Gal(b1-4)GlcNAc(b1-3)]GalNAc
# Procedure, shortened: as §1
# [25] = biological target: GlcNAc(b1-3)Gal(b1-4)GlcNAc(b1-6)[Gal(b1-3)]GalNAc
# Procedure, shortened: as §1
# [26] = biological target: GlcNAc(b1-3)Gal(b1-4)GlcNAc(b1-6)[GlcNAc(b1-3)Gal(b1-3)]GalNAc
# Procedure, shortened: as §1
# [27] = biological target: GlcNAc(b1-3)Gal(b1-4)GlcNAc(b1-6)[GlcNAc(b1-3)]Gal(b1-4)GlcNAc
# Procedure, shortened: as §1
# GlcNAc(b1-3)GalNAc = biological target: GlcNAc(b1-3)GalNAc
# Procedure, shortened: as §1
# GlcNAc(b1-3)Man = biological target: GlcNAc(b1-3)Man
# Procedure, shortened: as §1
# [28] = biological target: GlcNAc(b1-3)[GlcNAc(b1-4)][GlcNAc(b1-6)]GlcNAc
# Procedure, shortened: as §1
# [29] = biological target: GlcNAc(b1-3)[GlcNAc(b1-6)]Gal(b1-4)GlcNAc
# Procedure, shortened: as §1
# [30] = biological target: GlcNAc(b1-3)[GlcNAc(b1-6)]GalNAc
# Procedure, shortened: as §1
# [31] = biological target: GlcNAc(b1-3)[GlcNAc(b1-6)]GlcNAc(b1-4)GlcNAc
# Procedure, shortened: as §1
# [32] = biological target: GlcNAc(b1-4)Gal(b1-4)GlcNAc
# Procedure, shortened: as §1
# GlcNAc(b1-4)GlcNAc = biological target: GlcNAc(b1-4)GlcNAc
# Procedure, shortened: as §1
# [33] = biological target: GlcNAc(b1-4)GlcNAc(b1-4)GlcNAc
# Procedure, shortened: as §1
# [34] = biological target: GlcNAc(b1-4)GlcNAc(b1-4)GlcNAc(b1-4)GlcNAc(b1-4)GlcNAc
# Procedure, shortened: as §1
# [35] = biological target: GlcNAc(b1-4)GlcNAc(b1-4)GlcNAc(b1-4)GlcNAc(b1-4)GlcNAc(b1-4)GlcNAc
# Procedure, shortened: as §1
# [36] = biological target: GlcNAc(b1-4)[GlcNAc(b1-6)]GalNAc
# Procedure, shortened: as §1
# [37] = biological target: GlcNAc(b1-6)Gal(b1-4)GlcNAc
# Procedure, shortened: as §1
# GlcNAc(b1-6)GalNAc = biological target: GlcNAc(b1-6)GalNAc
# Procedure, shortened: as §1
# [38] = biological target: GlcNAc6S(b1-3)Gal(b1-4)GlcNAc
# Procedure, shortened: as §1
binder,measurement,setting,value
B1,glycan array binding signal (z-score),[1],-0.181
same,glycan array binding signal (z-score),[2],-0.288
same,glycan array binding signal (z-score),[3],-0.417
same,glycan array binding signal (z-score),[4],-0.255
same,glycan array binding signal (z-score),[5],-0.375
same,glycan array binding signal (z-score),[6],-0.36
same,glycan array binding signal (z-score),GlcNAc(b1-3)Fuc,-0.295
same,glycan array binding signal (z-score),GlcNAc(b1-3)Gal,-0.124
same,glycan array binding signal (z-score),[7],-0.163
same,glycan array binding signal (z-score),GlcNAc(b1-3)Gal(b1-4)Glc,-0.043
same,glycan array binding signal (z-score),[8],-0.101
same,glycan array binding signal (z-score),[9],-0.337
same,glycan array binding signal (z-score),[10],-0.233
same,glycan array binding signal (z-score),[11],-0.075
same,glycan array binding signal (z-score),[12],-0.175
same,glycan array binding signal (z-score),[13],0.964
same,glycan array binding signal (z-score),[14],-0.137
same,glycan array binding signal (z-score),[15],-0.28
same,glycan array binding signal (z-score),[16],-0.162
same,glycan array binding signal (z-score),[17],-0.074
same,glycan array binding signal (z-score),[18],-0.049
same,glycan array binding signal (z-score),[19],-0.062
same,glycan array binding signal (z-score),[20],-0.306
same,glycan array binding signal (z-score),[21],0.047
same,glycan array binding signal (z-score),[22],-0.226
same,glycan array binding signal (z-score),[23],-0.477
same,glycan array binding signal (z-score),[24],-0.128
same,glycan array binding signal (z-score),[25],-0.24
same,glycan array binding signal (z-score),[26],-0.305
same,glycan array binding signal (z-score),[27],-0.244
same,glycan array binding signal (z-score),GlcNAc(b1-3)GalNAc,-0.136
same,glycan array binding signal (z-score),GlcNAc(b1-3)Man,0.024
same,glycan array binding signal (z-score),[28],-0.023
same,glycan array binding signal (z-score),[29],-0.254
same,glycan array binding signal (z-score),[30],-0.257
same,glycan array binding signal (z-score),[31],-0.15
same,glycan array binding signal (z-score),[32],-0.322
same,glycan array binding signal (z-score),GlcNAc(b1-4)GlcNAc,-0.142
same,glycan array binding signal (z-score),[33],0.023
same,glycan array binding signal (z-score),[34],-0.011
same,glycan array binding signal (z-score),[35],0.041
same,glycan array binding signal (z-score),[36],-0.206
same,glycan array binding signal (z-score),[37],0.05
same,glycan array binding signal (z-score),GlcNAc(b1-6)GalNAc,-0.146
same,glycan array binding signal (z-score),[38],-0.028
